Results as given in PubChem BioAssay AID504333 (National Center for Advancing Translational Sciences (NCATS), 2011).
Hit rate of the full screen: of about 360,000 compounds, about 16,000 (4.4%) were called active. The inconclusive results got no clear call from the source; some entries with a clear call stand among them for comparison. Calls come from the whole dose curve; as a rule, active = well fitted inhibition curve with a large enough effect; inconclusive = small, poorly fitted or top-dose-only effect; inactive = no such curve, though single readings can be large or run the other way. A potency beside an inconclusive call is a rough fit, not a confirmed value.

Target: Bromodomain adjacent to zinc finger domain protein 2B (Homo sapiens) (UniProt Q9UIF8)
Assay: qHTS Assay for Inhibitors of BAZ2B; note: nearly all actives have a fitted effect of over 60% in size
Conditions: AlphaScreen BAZ2B-H3K14Ac peptide displacement; activity change, negative = inhibition: at 114 µM (top of the series) unless noted
In short: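 Multi-concentration screen (max 110 uM) measuring displacement of acetylated histone H3 peptide from BAZ2B by AlphaScreen, using 50 nM protein, 50 nM peptide and 10 ug/mL streptavidin donor plus Ni-chelate acceptor beads.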
% is set by controls: 0 for no effect and ±100 for the full control effect; potency is the fitted concentration of half-maximal effect; tags give direction and shape of the fitted curve.

Chain of UniProt Q9UIF8 (Q9UIF8 whole entry, looked up, the tested form may be a part): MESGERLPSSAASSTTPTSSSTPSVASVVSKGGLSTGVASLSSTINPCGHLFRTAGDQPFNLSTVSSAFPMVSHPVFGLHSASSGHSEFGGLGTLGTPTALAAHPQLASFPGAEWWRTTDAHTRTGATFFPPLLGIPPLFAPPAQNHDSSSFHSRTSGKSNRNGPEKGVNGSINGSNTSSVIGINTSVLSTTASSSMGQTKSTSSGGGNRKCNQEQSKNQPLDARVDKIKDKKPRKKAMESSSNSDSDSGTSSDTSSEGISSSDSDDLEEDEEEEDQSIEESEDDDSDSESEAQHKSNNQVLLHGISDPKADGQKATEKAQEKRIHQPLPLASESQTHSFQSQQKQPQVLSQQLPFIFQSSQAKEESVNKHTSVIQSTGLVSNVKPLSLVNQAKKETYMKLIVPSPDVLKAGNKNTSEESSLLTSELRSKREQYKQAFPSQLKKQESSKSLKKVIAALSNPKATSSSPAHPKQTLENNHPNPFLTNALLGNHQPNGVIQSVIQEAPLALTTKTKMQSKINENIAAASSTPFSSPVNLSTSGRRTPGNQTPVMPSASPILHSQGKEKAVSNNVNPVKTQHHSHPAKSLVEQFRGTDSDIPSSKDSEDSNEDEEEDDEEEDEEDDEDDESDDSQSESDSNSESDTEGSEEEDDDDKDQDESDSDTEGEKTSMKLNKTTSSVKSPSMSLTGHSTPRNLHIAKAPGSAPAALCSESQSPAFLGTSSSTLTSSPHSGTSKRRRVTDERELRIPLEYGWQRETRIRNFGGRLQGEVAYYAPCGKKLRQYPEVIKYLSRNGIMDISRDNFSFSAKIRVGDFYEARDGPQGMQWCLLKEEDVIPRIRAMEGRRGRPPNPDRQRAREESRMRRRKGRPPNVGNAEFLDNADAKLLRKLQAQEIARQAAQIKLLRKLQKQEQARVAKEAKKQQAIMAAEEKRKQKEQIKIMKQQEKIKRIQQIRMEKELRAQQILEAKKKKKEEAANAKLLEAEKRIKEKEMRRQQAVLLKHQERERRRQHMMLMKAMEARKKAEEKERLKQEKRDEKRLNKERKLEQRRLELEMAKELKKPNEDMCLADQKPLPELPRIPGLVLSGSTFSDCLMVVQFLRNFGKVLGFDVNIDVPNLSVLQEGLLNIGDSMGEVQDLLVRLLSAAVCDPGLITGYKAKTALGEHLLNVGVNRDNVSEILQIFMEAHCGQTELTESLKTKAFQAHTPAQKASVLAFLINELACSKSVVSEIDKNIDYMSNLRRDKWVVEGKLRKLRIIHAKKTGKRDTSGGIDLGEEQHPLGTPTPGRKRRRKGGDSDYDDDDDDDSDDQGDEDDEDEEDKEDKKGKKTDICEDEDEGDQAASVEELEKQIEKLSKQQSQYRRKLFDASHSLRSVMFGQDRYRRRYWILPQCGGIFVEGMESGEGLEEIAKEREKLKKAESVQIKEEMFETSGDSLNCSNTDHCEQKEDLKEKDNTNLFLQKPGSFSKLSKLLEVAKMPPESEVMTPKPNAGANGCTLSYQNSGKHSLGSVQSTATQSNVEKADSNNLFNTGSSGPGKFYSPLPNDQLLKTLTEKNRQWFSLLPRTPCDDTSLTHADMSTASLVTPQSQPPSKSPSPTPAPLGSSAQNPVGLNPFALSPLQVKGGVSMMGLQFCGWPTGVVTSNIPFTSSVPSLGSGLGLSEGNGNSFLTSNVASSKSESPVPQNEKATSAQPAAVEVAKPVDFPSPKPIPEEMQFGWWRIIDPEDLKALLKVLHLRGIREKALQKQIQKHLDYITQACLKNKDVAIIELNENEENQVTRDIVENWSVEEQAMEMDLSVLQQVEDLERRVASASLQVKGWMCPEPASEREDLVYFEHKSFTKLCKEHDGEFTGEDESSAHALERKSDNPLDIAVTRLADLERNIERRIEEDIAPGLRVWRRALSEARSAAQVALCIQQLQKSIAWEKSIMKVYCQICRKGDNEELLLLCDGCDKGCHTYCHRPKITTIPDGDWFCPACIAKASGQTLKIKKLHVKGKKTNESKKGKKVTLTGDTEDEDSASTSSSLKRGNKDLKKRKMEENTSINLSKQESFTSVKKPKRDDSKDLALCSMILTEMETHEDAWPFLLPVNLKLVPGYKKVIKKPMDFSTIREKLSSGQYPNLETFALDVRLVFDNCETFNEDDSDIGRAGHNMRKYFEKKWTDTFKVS

Row | SMILES | activity change, negative = inhibition | Potency
1 | CC(C)N(CC#CCC(O)(c1ccccc1)c1ccccc1)C(C)C | inactive: 3.83% | 
2 | O=S(=O)(c1cccnc1)N1CCn2cccc2C1c1ccccc1F (stereo unspecified) |  | inconclusive: 89.1 µM [inhibitor, single point]
3 | Cc1cccc(CN2CCN(C(=O)CCl)CC2)c1 | inactive: -0.459% | 
4 | Cc1ncsc1CCOC(=O)c1ccc(N2CCOCC2)c([N+](=O)[O-])c1 |  | inconclusive: 56.2 µM [inhibitor, partial curve]
5 | Cc1cccc(-c2cc3nc(C)cc(NCCCn4ccnc4)n3n2)c1 |  | active: 17.8 µM
6 | COc1ccc(-c2c(C)oc3ccc(C)cc23)cc1 |  | inconclusive: 70.8 µM [inhibitor, single point]
7 | Nc1nc(CN2CCc3ccccc3C2)nc(Nc2ccccc2)n1 |  | active: 50.1 µM
8 | Cn1nc(-c2ccc(OCC(=O)Nc3ccc(Cl)cc3)cc2)c2ccccc2c1=O |  | inconclusive: 89.1 µM [inhibitor, single point]
9 | O=C(CN1CCN(Cc2ccc3c(c2)OCO3)CC1)N1CCc2[nH]c3ccc(F)cc3c2C1 |  | inconclusive: 44.7 µM [inhibitor, partial curve]
10 | Cc1ccc(CN2C(=O)C(=O)c3cc(Br)cc(C)c32)cc1 |  | active: 12.6 µM
11 | O=C1C(Cc2ccccc2)Nc2ncnc(N3CCN(c4ccccc4)CC3)c2N1Cc1ccccc1 (stereo unspecified) |  | inconclusive: 50.1 µM [inhibitor, partial curve]
12 | Cc1ccccc1Nc1c(-c2cccnc2)nc2cccc(C)n12 |  | inconclusive: 28.2 µM [inhibitor, full curve]
13 | CC(=O)Nc1cccc(C(=O)O)n1 |  | active: 22.4 µM
14 | Cc1ccc(S(=O)(=O)N2CCOCC2)cc1C(=O)OCC(=O)N(Cc1ccccc1)C(C)C | inactive: 0.472% | 
15 | O=S(=O)(Nc1ccc(F)cc1)c1cccc2nsnc12 |  | inconclusive: 89.1 µM [inhibitor, single point]
16 | CCCc1nc(S(=O)(=O)Cc2ccc(Cl)cc2Cl)n[nH]1 |  | inconclusive: 39.8 µM [inhibitor, single point]
17 | CCOc1ccc(NC(=O)C(c2ccccn2)N(C(=O)CCl)c2ccc(OC)cc2)cc1 (stereo unspecified) |  | inconclusive: 79.4 µM [inhibitor, single point]
18 | COC(=O)c1c(-c2cc(C)ccc2C)csc1NC(=O)C1CC=CCC1C(=O)O (stereo unspecified) |  | inconclusive: 79.4 µM [inhibitor, single point]
19 | COc1ccc(CC(=O)NCc2cn3ccsc3n2)cc1 | inactive: -2.64% | 
20 | CCOC(=O)N1CCN(C(=O)COC(=O)CNC(=O)c2ccc(OCC)c(OCC)c2)CC1 | inactive: 7.45% | 
21 | COc1ccc(Cn2cc(C(=O)c3ccc(F)cc3)c(=O)c3cc4c(cc32)OCCO4)cc1 |  | inconclusive: 20 µM [inhibitor, full curve]
22 | Cc1ccc(N=Cc2cc(C)n(C3CCCC3)c2C)cc1 |  | inconclusive: 79.4 µM [inhibitor, single point]
23 | NNC(=O)CSCc1ccc(Cl)cc1Cl | inactive: -6.79% | 
24 | CCn1c2ccccc2c2cc(NC(=O)c3cc(C)on3)ccc21 |  | inconclusive: 79.4 µM [inhibitor, single point]

Row | SMILES | activity change, negative = inhibition | Potency
25 | Cc1ccc(Nc2c([N+](=O)[O-])ccc3nonc23)c(C)c1 |  | inconclusive: 7.94 µM [inhibitor, full curve, poor fit]
26 | COc1ccc(-c2nc3ccccc3n2Cc2ccc(C)cc2)cc1 |  | inconclusive: 89.1 µM [inhibitor, single point]
27 | CCCCCn1c(N)c(-c2nc3ccccc3o2)c2c([N+](=O)[O-])nn(C)c(=O)c21 |  | inconclusive: 56.2 µM [inhibitor, partial curve, poor fit]
28 | CCOc1cc(C2c3c(oc4cc(C)c(Cl)cc4c3=O)C(=O)N2Cc2ccco2)ccc1O (stereo unspecified) | inactive: 5% | 
29 | Clc1ccc(N=NN2CCOCC2)cc1 | inactive: 6.63% | 
30 | CCOC(=O)c1c(C)c(C(=O)NCc2ccco2)c(C)n1Cc1ccccc1 |  | inconclusive: 50.1 µM [inhibitor, partial curve]
31 | COc1cccc(C2C3=C(N=c4s/c(=C\c5ccccc5O)c(=O)n42)c2ccccc2CC3)c1OC (stereo unspecified) |  | inconclusive: 63.1 µM [inhibitor, partial curve, poor fit]
32 | COc1ccc(-c2cc(-c3c(O)c(OC)c4occc4c3OC)[nH]n2)cc1OC |  | inconclusive: 44.7 µM [inhibitor, partial curve]
33 | COc1cc(OC)cc(-c2cc(N)n(S(=O)(=O)c3cccc4nsnc34)n2)c1 |  | inconclusive: 35.5 µM [inhibitor, full curve]
34 | C#CCOCCOCCOCCNc1nc(N2CCN(C(=O)[C@H](CCC(=O)O)n3cc(C(N)Cc4ccc(O)cc4)nn3)CC2)nc(N2CCN(C(=O)[C@H](CCC(=O)O)n3cc(C(N)CC(C)C)nn3)CC2)n1 (stereo partly specified) |  | active: 50.1 µM
35 | CC1=C(C(=O)Nc2ccccc2C)C(c2sccc2C)n2ncnc2N1 (stereo unspecified) | inactive: -2.41% | 
36 | CCCC1=Nc2cc(C(=O)N3CCN(c4ccccn4)CC3)ccc2Sc2ccc(C)cc21 |  | inconclusive: 15.8 µM [inhibitor, partial curve]
37 | O=C(O)c1ccccc1Nc1cccc(OCc2ccc3ccccc3n2)c1 |  | active: 44.7 µM
38 | Cc1cc(C(=O)COC(=O)c2ccncc2)c(C)n1CCc1ccc(F)cc1 |  | inconclusive: 50.1 µM [inhibitor, partial curve]
39 | O=C(O)/C=C/C(=O)NC1CCS(=O)(=O)C1 (stereo unspecified) |  | inconclusive: 100 µM [inhibitor, single point]
40 | Cc1[nH]c2ccc(F)cc2c1CCN1C(=O)OC(C)(C)C1(C)O (stereo unspecified) | inactive: -26.3% | 
41 | Cc1cc(Br)ccc1NC(=O)CN(C)C(=O)c1cc(S(=O)(=O)N(C)C)ccc1N1CCCC1 | inactive: -37.1% | 
42 | O=C1COc2ccc(C(=O)COC(=O)/C=C/c3ccc(Br)o3)cc2N1 |  | active: 44.7 µM
43 | Cc1ccc(C)c(NC2=CC(=O)CC(C)(C)C2)c1C#N |  | inconclusive: 79.4 µM [inhibitor, single point]
44 | CC1=C/C(=C(/c2ccc(O)c(C)c2)c2ccccc2S(=O)(=O)O)C=CC1=O |  | active: 50.1 µM
45 | O=C1CSC(=S)N1c1ccc(O)cc1 |  | inconclusive: 89.1 µM [inhibitor, single point]
46 | Cc1cc(C)c(Cn2cnc(-c3ccc([N+](=O)[O-])cc3)c2)c(C)c1 |  | inconclusive: 3.16 µM [inhibitor, full curve]
47 | Cc1ccc(S(=O)(=O)CC(c2ccccc2)N2CCCCC2)cc1 (stereo unspecified) | inactive: -12.7% | 
48 | O=[N+]([O-])c1cc(Cl)c(Cl)c(Cl)c1Cl |  | inconclusive: 35.5 µM [inhibitor, partial curve]

Row | SMILES | activity change, negative = inhibition | Potency
49 | CC1COc2ccccc2N1C(=O)c1ccc(Cl)nc1 (stereo unspecified) |  | inconclusive: 89.1 µM [inhibitor, single point]
50 | Cc1ccc(CNC(=O)c2cc3c(=O)n4cccc(C)c4nc3s2)cc1 |  | inconclusive: 89.1 µM [inhibitor, single point]
51 | CCOc1cc(CNc2ccc3c(c2)CCC3)ccc1OC |  | inconclusive: 89.1 µM [inhibitor, single point]
52 | C=CCc1cc(Cl)ccc1OCCNCCN1CCOCC1 |  | active: 31.6 µM
53 | CC(C)(Oc1ccc(Cl)cc1)C(=O)N1CCC(C(N)=O)CC1 |  | inconclusive: 89.1 µM [inhibitor, single point]
54 | CCCOc1ccc2c(CC)cc(=O)oc2c1C | inactive: 44% | 
55 | CCOC(=O)c1ccc(N2C(=O)c3n[nH]c(-c4ccco4)c3C2c2cccc([N+](=O)[O-])c2)cc1 (stereo unspecified) |  | active: 11.2 µM
56 | CCOc1ccc(C2/C(=C(\O)c3cccc(OC)c3)C(=O)C(=O)N2c2cc(C)on2)cc1OC (stereo unspecified) |  | inconclusive: 89.1 µM [inhibitor, single point]
57 | CCOc1ccccc1/C=N/N1CCN(Cc2ccccc2)CC1 |  | active: 50.1 µM
58 | Cc1c(Cl)cccc1-n1c(-c2cccnc2)n[nH]c1=S | inactive: -1.53% | 
59 | COc1ccc(C2(N3CCN(c4cc(C)ccc4C)CC3)C(=O)c3ccccc3C2=O)cc1 |  | inconclusive: 8.91 µM [inhibitor, full curve, poor fit]
60 | COc1cccc(OC)c1C(=O)NNS(=O)(=O)c1ccc2ccccc2c1 | inactive: -13.9% | 
61 | CCOC(=O)c1sc(NC(=O)c2nc3nc(C)cc(C(F)F)n3n2)c(C(=O)OC(C)C)c1C |  | inconclusive: 89.1 µM [inhibitor, single point]
62 | O=C(Nc1nc2ccccc2[nH]1)C1CC(=O)N(c2ccc3c(c2)OCCO3)C1 (stereo unspecified) |  | inconclusive: 89.1 µM [inhibitor, single point]
63 | Cc1ccsc1C=C1C(=O)c2ccccc2C1=O |  | inconclusive: 6.31 µM [inhibitor, full curve, poor fit]
64 | COc1ccccc1NC(=O)C1=C(C)Nc2nnnn2C1c1cccc(Br)c1 (stereo unspecified) |  | inconclusive: 89.1 µM [inhibitor, single point]
65 | Cc1ccc(-c2nc(CCNC(=O)C(=O)Nc3ccc(C)c(Cl)c3)cs2)cc1 | inactive: -0.871% | 
66 | CCOC(=O)c1c(C=O)c(C)n(Cc2ccccc2Cl)c1C |  | inconclusive: 56.2 µM [inhibitor, partial curve]
67 | Cc1cc(C(=O)CSc2nnc(Nc3ccccc3F)s2)c(C)n1CC1CCCO1 (stereo unspecified) |  | inconclusive: 79.4 µM [inhibitor, single point]
68 | O=C(NC(=S)Nc1ccccc1)c1ccc(Br)o1 | inactive: -30% | 
69 | CCCC[n+]1ccn(C2=C([O-])c3ccccc3C(=O)/C2=N\S(=O)(=O)c2ccccc2)c1 |  | inconclusive: 89.1 µM [inhibitor, single point]
70 | Oc1c(C(c2cccc(Br)c2)N2CCCC2)sc2nc(-c3ccco3)nn12 (stereo unspecified) |  | inconclusive: 79.4 µM [inhibitor, single point]
71 | COc1ccc(N2CCN(CC(O)COc3ccc4c(c3)CCC4)CC2)cc1 (stereo unspecified) |  | active: 35.5 µM
